Measurements from patent US8633183B2 (priority 2010, dated 2014).
pEC50: −log10 of the molar value. Like-named read-outs stand apart in the source and are kept apart here.

Tested on: PC3 (human prostate carcinoma cell line) cells
Test: cells
Conditions: for pEC50: read-out: EC50 PC3; for EC50: PC-3, 72 h, read-out: EC50 PC3 [nM]

| Structure (SMILES) | pEC50 | EC50 |
| --- | --- | --- |
| CCc1ncnc(-c2ccc(C(=O)N3CCN(C4CCS(=O)(=O)C4)CC3)c(OC)c2)c1C#Cc1ccc(N)nc1 [Example D-172] | 6.41 | – |
| CCc1ncnc(-c2ccc(C(=O)N3CCN(C4CCCC4)CC3)c(OC)c2)c1C#Cc1ccc(N)nc1 [Example D-186] | 6.72 | – |
| Cc1ncnc(-c2ccc(C(=O)N3CCN(C4CCOCC4)CC3)cc2)c1C#Cc1ccc(N)nc1 [Example D-193] | 7.16 | – |
| CCc1ncnc(-c2ccc(C(=O)N3CCC(N4CCN(C)CC4)CC3)c(OC)c2)c1C#Cc1ccc(N)nc1 [Example D-163] | 6.53 | – |
| CCc1ncnc(-c2ccc(C(=O)N3CCN(CC4CCCCC4)CC3)c(OC)c2)c1C#Cc1ccc(N)nc1 [Example D-185] | 5.94 | – |
| CCc1ncnc(-c2ccc(C(=O)N3CC[S+]([O-])CC3)c(F)c2)c1C#Cc1ccc(N)nc1 [Example D-105] | 7.30 | – |
| CCc1ncnc(-c2ccc(C(=O)NC3CC(C)(C)NC(C)(C)C3)c(F)c2)c1C#Cc1ccc(N)nc1 [Example D-213] | 6.88 | – |
| Cc1ncnc(-c2cc(Cl)cc(C(=O)N(C)C)c2)c1C#Cc1ccc(N)nc1 [Example C-38] | – | 245 nM |
| CCc1ncnc(-c2ccc(C(=O)N3CCCO3)c(OC)c2)c1C#Cc1ccc(N)nc1 [Example D-168] | 6.98 | – |
| Cc1ncnc(-c2cnc3ccccc3c2)c1C#Cc1ccc(N)nc1 [Example C-22] | – | 163 nM |
| CCc1ncnc(-c2ccc(C(=O)N3CCCCC3)c(F)c2)c1C#Cc1ccc(N)nc1C [Example D-10] | 7.38 | – |
| CCc1ncnc(-c2ccc(C(=O)N3CCCN(C)CC3)c(Cl)c2)c1C#Cc1ccc(N)nc1 [Example D-154] | 6.91 | – |
| Cc1ncnc(-c2ccc(C(=O)N3CCN4CCCCC4C3)cc2)c1C#Cc1ccc(N)nc1 [Example D-191] | 7.26 | – |
| CCc1ncnc(-c2ccc(C(=O)N3CC(C)NC(C)C3)c(F)c2)c1C#Cc1ccc(N)nc1 [Example D-132] | 7.01 | – |
| CCc1ncnc(-c2ccc(C(=O)N(C)CCCOC)c(F)c2)c1C#Cc1ccc(N)nc1 [Example D-1] | 7.11 | – |
| CCc1ncnc(-c2ccc(C(=O)NC3CC(C)(C)N(C)C(C)(C)C3)c(F)c2)c1C#Cc1ccc(N)nc1 [Example D-202] | 6.70 | – |
| CCc1ncnc(-c2ccc(C(=O)N3CCCN(C)CC3)c(F)c2)c1C#Cc1ccc(N)nc1 [Example D-118] | 7.32 | – |
| CCc1ncnc(-c2ccnc(OC)c2)c1C#Cc1ccc(N)nc1 [Example C-33] | – | 106 nM |
| CCc1ncnc(-c2ccc(C(=O)N(C)C)c(F)c2)c1C#Cc1ccc(C)nc1 [Example C-19] | – | 506 nM |
| Cc1ncnc(-c2ccc(C(=O)N3CC(O)CO3)c(F)c2)c1C#Cc1ccc(N)nc1 [Example D-228] | 7.09 | – |
| CCc1ncnc(-c2ccc(Cl)c(C(=O)N3CCCCC3)c2)c1C#Cc1ccc(N)nc1 [Example C-48] | – | 747 nM |
| CCc1ncnc(-c2ccc(C(=O)N3CCN(CCOC)CC3)c(OC)c2)c1C#Cc1ccc(N)nc1 [Example D-52] | 7.15 | – |
| CCc1ncnc(-c2ccc(C(=O)N3CCN(C)CC3)c(F)c2)c1C#Cc1ccc(N)nc1 [Example D-8] | 7.31 | – |
| CCc1ncnc(-c2ccc(C(=O)N3CCC(OC)CC3)c(Cl)c2)c1C#Cc1ccc(N)nc1 [Example D-142] | 7.10 | – |
| CCc1ncnc(-c2ccc(C(=O)N3CCNC(=O)C3)c(Cl)c2)c1C#Cc1ccc(N)nc1 [Example D-44] | 7.25 | – |
| CCc1ncnc(-c2ccc(C(=O)N3CCN(C4CCOCC4)CC3)c(Cl)c2)c1C#Cc1ccc(N)nc1 [Example D-31] | 7.64 | – |

| Structure (SMILES) | pEC50 | EC50 |
| --- | --- | --- |
| CCc1ncnc(-c2ccc(C(=O)N3CCC(C4CCN(C)CC4)CC3)c(Cl)c2)c1C#Cc1ccc(N)nc1 [Example D-139] | 6.84 | – |
| CCc1ncnc(-c2ccc(C(=O)N(C)OC)cc2)c1C#Cc1ccc(N)nc1 [Example D-225] | 7.18 | – |
| CCCCN1CCN(C(=O)c2ccc(-c3ncnc(CC)c3C#Cc3ccc(N)nc3)cc2F)CC1 [Example D-83] | 7.44 | – |
| Cc1ncnc(-c2ccc(F)c(C(=O)N3CCCCC3)c2)c1C#Cc1ccc(N)nc1 [Example C-41] | – | 679 nM |
| CCc1ncnc(-c2ccc(C(=O)N3CCN(CC(F)F)CC3)c(F)c2)c1C#Cc1ccc(N)nc1C [Example D-12] | 7.35 | – |
| CCc1ncnc(-c2ccc(C(=O)N3CCN(C)C(=O)C3)c(F)c2)c1C#Cc1ccc(N)nc1 [Example D-133] | 7.57 | – |
| Cc1ncnc(-c2ccc(C(=O)N3CCCO3)c(Cl)c2)c1C#Cc1ccc(N)nc1 [Example D-230] | 7.21 | – |
| CCc1ncnc(-c2ccc(C(=O)N3CCN(CC4CCCO4)CC3)c(F)c2)c1C#Cc1ccc(N)nc1 [Example D-88] | 7.17 | – |
| CCc1ncnc(-c2ccc(C(=O)N3CCC(O)(CN(C)C)CC3)c(F)c2)c1C#Cc1ccc(N)nc1 [Example D-103] | 7.24 | – |
| CCc1ncnc(-c2ccc(C(=O)NCC3(C)COC3)c(F)c2)c1C#Cc1ccc(N)nc1 [Example D-214] | 7.35 | – |
| CCc1ncnc(-c2ccc(Cl)c(C(=O)NC)c2)c1C#Cc1ccc(N)nc1 [Example C-49] | – | 506 nM |
| CCc1ncnc(-c2ccc(C(=O)N(C)C)c(F)c2)c1C#Cc1ccc(N)nc1 [Example C-15A] | – | 74 nM |
| CCc1ncnc(-c2ccc(C(=O)N3CCN(c4ccccc4)CC3)c(F)c2)c1C#Cc1ccc(N)nc1C [Example D-25] | 7.26 | – |
| CCc1ncnc(-c2ccc(C(=O)N3CC(O)CO3)c(OC)c2)c1C#Cc1ccc(N)nc1 [Example D-167] | 6.42 | – |
| CCc1ncnc(-c2ccc(C(=O)N3CCN(CCO)CC3)c(Cl)c2)c1C#Cc1ccc(N)nc1 [Example D-36] | 7.39 | – |
| CCc1ncnc(-c2cc(C)nc(C)c2)c1C#Cc1ccc(N)nc1 [Example C-4] | – | 60 nM |
| CCc1ncnc(-c2ccc(C(=O)NC3CCCN(C)C3)c(Cl)c2)c1C#Cc1ccc(N)nc1 [Example D-140] | 6.66 | – |
| CCc1ncnc(-c2ccc(C(=O)N(C)CC3CCCN(C)C3)c(F)c2)c1C#Cc1ccc(N)nc1 [Example D-73] | 6.75 | – |
| CCCCN1CCN(C(=O)c2ccc(-c3ncnc(CC)c3C#Cc3ccc(N)nc3)cc2Cl)CC1 [Example D-29] | 7.25 | – |
| CON(C)C(=O)c1ccc(-c2ncnc(C)c2C#Cc2ccc(N)nc2)cc1F [Example D-229] | 7.19 | – |
| Cc1ncnc(-c2ccc(C(=O)N3CCN(c4ccccc4)CC3)cc2)c1C#Cc1ccc(N)nc1 [Example D-188] | 7.21 | – |
| CCc1ncnc(-c2ccc(C(=O)N3CCN(C(C)(C)C)CC3)c(Cl)c2)c1C#Cc1ccc(N)nc1 [Example D-43] | 7.55 | – |
| CCc1ncnc(-c2ccc(C(=O)N3CCN(C(CC)CC)CC3)c(F)c2)c1C#Cc1ccc(N)nc1 [Example D-130] | 7.35 | – |
| Cc1ncnc(-c2ccc(C(=O)N3CCN(CCO)CC3)cc2)c1C#Cc1ccc(N)nc1 [Example D-194] | 6.87 | – |
| CCOC(=O)N1CCN(C(=O)c2ccc(-c3ncnc(CC)c3C#Cc3ccc(N)nc3)cc2OC)CC1 [Example D-180] | 6.92 | – |
| CCc1ncnc(-c2ccc(C(=O)N3CCC[C@H]3CO)c(F)c2)c1C#Cc1ccc(N)nc1 [Example D-135] | 6.91 | – |

| Structure (SMILES) | pEC50 | EC50 |
| --- | --- | --- |
| CCc1ncnc(-c2cccc(C(=O)NC)c2)c1C#Cc1ccc(N)nc1 [Example C-50] | – | 212 nM |
| CCc1ncnc(-c2ccc(C(=O)N3CC[C@@H](N(C)C)C3)c(F)c2)c1C#Cc1ccc(N)nc1 [Example D-236] | 7.31 | – |
| CCc1ncnc(-c2ccccc2)c1C#Cc1ccc(N)nc1 [Example C-13] | – | 170 nM |
| CCOC(=O)N1CCN(C(=O)c2ccc(-c3ncnc(CC)c3C#Cc3ccc(N)nc3)cc2F)CC1 [Example D-116] | 7.66 | – |
| CCc1ncnc(-c2ccc(C(=O)N3CCN(S(=O)(=O)CC)CC3)c(OC)c2)c1C#Cc1ccc(N)nc1 [Example D-55] | 7.44 | – |
| CCc1ncnc(-c2ccc(C(=O)N(C)C3CCS(=O)(=O)C3)c(OC)c2)c1C#Cc1ccc(N)nc1 [Example D-179] | 6.87 | – |
| Cc1ncnc(-c2ccc(C(=O)N3CCN(C4CCS(=O)(=O)C4)CC3)cc2)c1C#Cc1ccc(N)nc1 [Example D-192] | 6.85 | – |
| CCc1ncnc(-c2ccc(C(=O)N3CCN(c4ccccn4)CC3)c(Cl)c2)c1C#Cc1ccc(N)nc1 [Example D-37] | 7.42 | – |
| CCc1ncnc(-c2ccc(C(=O)N3CCN(Cc4ccccc4)CC3)c(OC)c2)c1C#Cc1ccc(N)nc1 [Example D-187] | 6.53 | – |
| Cc1ncnc(-c2ccc(C(=O)N3CCCCO3)c(F)c2)c1C#Cc1ccc(N)nc1 [Example D-227] | 7.00 | – |
| CCc1ncnc(-c2ccc(C)nc2)c1C#Cc1ccc(N)nc1 [Example C-31] | – | 133 nM |
| CCc1ncnc(-c2ccc(S(C)(=O)=O)cc2)c1C#Cc1ccc(N)nc1 [Example C-14] | – | 100 nM |
| CCc1ncnc(-c2ccc(C(=O)NC3CCN(C)CC3)c(F)c2)c1C#Cc1ccc(N)nc1 [Example D-65] | 6.81 | – |
| CCCCN1CCN(C(=O)c2ccc(-c3ncnc(CC)c3C#Cc3ccc(N)nc3)cc2OC)CC1 [Example D-161] | 6.81 | – |
| CCc1ncnc(-c2ccc(C3CC3)nc2)c1C#Cc1ccc(N)nc1 [Example C-35] | – | 131 nM |
| CCc1ncnc(-c2ccc(C(=O)N3CCN(CC(F)(F)F)CC3)c(OC)c2)c1C#Cc1ccc(N)nc1 [Example D-54] | 7.42 | – |
| CCc1ncnc(-c2ccc(C(=O)N3CCN(CC4CCCO4)CC3)c(F)c2)c1C#Cc1ccc(N)nc1C [Example D-16] | 7.17 | – |
| CCc1ncnc(-c2ccc(C(=O)N3CCCO3)c(F)c2)c1C#Cc1ccc(N)nc1 [Example D-218] | 7.24 | – |
| CCc1ncnc(-c2ccc(C(=O)N3CCC(N4CCCC4)CC3)c(F)c2)c1C#Cc1ccc(N)nc1 [Example D-112] | 7.21 | – |
| CCc1ncnc(-c2ccc(C(=O)N3CCCO3)cc2)c1C#Cc1ccc(N)nc1 [Example D-222] | 7.20 | – |
| CCc1ncnc(-c2ccc(C(=O)N3CC[S+]([O-])CC3)c(Cl)c2)c1C#Cc1ccc(N)nc1 [Example D-141] | 7.41 | – |
| CCc1ncnc(-c2ccc(C(=O)N3CCN(C)C(C)C3)c(F)c2)c1C#Cc1ccc(N)nc1 [Example D-128] | 7.19 | – |
| CCc1ncnc(-c2ccc(C(=O)N3CCC(N(C)C)CC3)c(OC)c2)c1C#Cc1ccc(N)nc1 [Example D-177] | 6.55 | – |
| CCc1ncnc(-c2ccc(C(=O)N3CCN(CC)CC3)c(Cl)c2)c1C#Cc1ccc(N)nc1 [Example D-45] | 7.27 | – |
